According to patent publication US12551573B2, “Compositions and methods for the targeting of PCSK9” (Scribe Therapeutics Inc., priority 2022, dated 2026):
Where two headings read alike, the source gives them in different places.

Test system: HBEGF locus
Format: cell-based, human
[1] = high-throughput screen of dXR repression of the HBEGF gene, abundance of each domain in the library before and after diphtheria toxin selection, HEK293T cells
[2] = repressor domain in dXR, repression of the HBEGF gene, abundance of domain in library after vs before diphtheria toxin selection
[3] = high-throughput screen of dXR repression of the HBEGF gene, change in abundance of each domain in the library before and after diphtheria toxin selection

Molecule | Log2 (fold change) [1] | further results
DOMAIN_13880 (protein, listed as Lynx canadensis) RPRAVKFADVAVYFSTEEWGCLRPAQRALYRDVMRETYGHLGALGCAGPKPALISWLERNTDDWEPAALDPQECPRGVAVQ | 3.0991 | –
DOMAIN_13915 (protein, Muntiacus muntjak) PQEPVTFADVAVLFTPEEWLFLDSAQKSLYRDVMLENYRNLASVGDQLCKTRMSSHMEQREELCVTERGVFPGAHLGPHLQ | 2.8554 | –
DOMAIN_13705 (protein, Phyllostomus discolor) SQPPVSFKDVVVSFTREEWGQLDTVQRTLYRDVTLETCGHLVSLGLLLPNLDVISHLENGEDPWRAEQEPPTQDWKTTLEK | 2.496 | –
DOMAIN_13591 (protein, listed as Lynx canadensis) AHGLVMFKDVAIDVSQEEWECLNPTQRSLYKDVMLENYSNLVSLGLSISKPAVISSLEQGKEPWMVVREVTGEQCPDLVSR | – | Log2 (fold change) [2]: 3.215
DOMAIN_13970 (protein, listed as Lynx canadensis) GPWTLLTFRDVAIEFSQEEWGCLNHSQRELYRDVMLETYGHLLFLGLVSKPDLVILLEQKKELWGVKRKETVASHPGRWEI | 2.89 | –
DOMAIN_13843 (protein, listed as Phascolarctos cinereus) GQESVTFTDVAVDFTLEEWAYLDHFQKELYKDVMLENYRNLLCLGLAVSKPDVISQLEQGDAPWMSEGGVPRSIYSDWETR | 3.6119 | –
DOMAIN_13562 (protein, listed as Phascolarctos cinereus) RQGSVTFQDVAVDFSWEEWGRLGPTQKELYREVMLENYRNLVCLGLEVSKPDVVYQLERGEAPWMPEGAVRRSCSQNWGAR | – | Log2 (fold change) [2]: 3.7608
DOMAIN_13830 (protein, listed as Phascolarctos cinereus) PQEAVTFKDVVVDFTQEEWKCLDSSQKEFYRDVMLENYSNLVSLGLAFPKPYVIDQLERREAPWIPEGDIPRISHPERKKK | 2.6435 | –
DOMAIN_13565 (protein, listed as Phascolarctos cinereus) SAASVTFRDVAVDFSREEWSRLDAAQRALYRDVMWETYENLVSTGIPVSRLDVISLLAKQEAQWTPEEVPGWTSPDSFSEE | – | Log2 (fold change) [2]: 2.994
DOMAIN_13610 (protein, listed as Phascolarctos cinereus) HQGSVTFGDVAVDFSQDEWGHLDPAQKELYREVMLENYGNLVCLGLAVSRPHVIEQLERGEAPWLPRGAVPRSCDLDWMTR | – | Log2 (fold change) [2]: 3.1925
DOMAIN_13823 (protein, listed as Macaca fascicularis) KPGAVSFADVAVYFSPEEWGCLRPAQRALYRDVMRETYGHLGALGFPGPKPALISWMEQETEAWSPAAQDPEKGERLGGAR | 4.219 | –
DOMAIN_13910 (protein, listed as Bos mutus) KPLAVRFADVAVYFSPEEWGCLRPAQRALYRDVMQETYGHLGALGFPGPKPALISWMEQESEAWSPAAQDPEEGESLGGAL | 2.9556 | –
DOMAIN_19892 (protein, listed as Ursus maritimus) VQSHVVFEDVAIYFSQEEWGLLDEAQRFLYHAVMLENFALLSSLGCWHGAQDEQALSEQGVSVGGSQVRTPKPAPSIQKSQ | – | Log2 (fold change) [3]: 3.1396
DOMAIN_13723 (protein, listed as Phascolarctos cinereus) QEDPVTFQDVAVVFTQEQWGYLDPSQKELYRDVMLENYQNLLCLGLAVSKPEVICQLEQGEAPWRPEGRVPGSSHPDGEVR | 2.9677 | –
DOMAIN_13601 (protein, listed as Macaca fascicularis) SYEGSVSFRDVAINFSREEWQHLDLSQRNLYRDVMLETCSHLLSVGYQVPKPEVVMLEQGKEPWALQGERPRQSCPGEKLW | – | Log2 (fold change) [2]: 2.4865
DOMAIN_13722 (protein, listed as Phascolarctos cinereus) PQESVTFEDVAVDFTWEEWGYLDTSQKELYWEVMLENYKNLVSLGFVVAKPDAISQLEQEEAPWRPEVLFPRSSCSDLDTK | 2.4814 | –
DOMAIN_13648 (protein, listed as Oryctolagus cuniculus) QAQEVLMFDDVAVRFTWEEWQLLNPAQKALYRDVMLENYRSLVSVGWRASKPDLLSQLERGEPWTIEGENHCGTPPEIWKA | – | Log2 (fold change) [2]: 3.1393
DOMAIN_13805 (protein, listed as Lynx canadensis) RPESVTFEDVAVYFSENEWIGLAPAQRVLYRDVMLENYGVVASLAFPFPKPALISQLERGEAPWCKAPQGALDGECPRGVS | 3.1769 | –
DOMAIN_13878 (protein, listed as Ailuropoda melanoleuca) SKVPVTFGDLAIYFSQEEWEWLSPIQKDLYEDVMLENYQNLVSLGLSFRRPNVITLLEKGKAPWMVEPVRKRRGVDSGSKC | 4.3232 | –

Molecule | Log2 (fold change) [1] | further results
DOMAIN_13703 (protein, listed as Lynx canadensis) KPGALSFADVAVYFSSEEWGCLRPAQRALYRDVMRETYGHLGALGFAGPKPALISWMERKKEAWSPEAEDPEDRASRIRAK | 3.7947 | –
DOMAIN_13987 (protein, listed as Myotis lucifugus) LQESVTFKDVAVLFTQDEWAQLSPAQRALYRDVMLENYSHLVSLGLLGPKPDLFAQLGKGEEWTPEDTSRGFCLDWMTIPV | 3.0633 | –
DOMAIN_13832 (protein, listed as Phascolarctos cinereus) PRGLVTFKDVAVDFTQEEWGLLDHNQKELYKEVMLENARNLLSLGLPVPREDVISYFEQREAPWMLEQEGLRSRCLEGEIR | 2.9705 | –
DOMAIN_13958 (protein, listed as Phascolarctos cinereus) FQESVTFKDVAVDFTWEEWGYLDTSQKELYWEVMLENYRNLVSLGLADSNVNMISQLESGEAHGISVDSVLRSCWPDGDTR | 3.2926 | –
DOMAIN_13650 (protein, listed as Ailuropoda melanoleuca) RPGAVSFADVAVYFSPEEWGCLRPAQRALYRDVMRETYGHLGALGFAGPKPALISWLERKKEVWSPEAEDPEEGARHPGSG | – | Log2 (fold change) [2]: 3.8556
DOMAIN_13783 (protein, listed as Macaca fascicularis) KPRTVSFADVAVYFSREEWGCLRPAQRALYRDVMRETYGHLGALGVGGSKPALISWVEEEAELWDPAAQDPEVTKCPTETD | 2.5821 | –
DOMAIN_13609 (protein, listed as Phascolarctos cinereus) GEEAVTFRDVALDFTWEEWGCLSAAQRELYKDVMLENYRNLVSLGLPGPKPGLISWLEGEEEPHPWDSLVHAARSTSLSKA | – | Log2 (fold change) [2]: 3.1787
DOMAIN_13981 (protein, listed as Phascolarctos cinereus) QNPVTFRDVAVDFSLEEWKCLSPAQRALYRDVMLENYENLASVGPRLPFSKPYVISQLERGEAPWMPEEEVPRDHWPDLFN | 2.8041 | –
DOMAIN_13664 (protein, listed as Macaca fascicularis) AQESVMFSDVSIDFSQEEWECLNDDQRDLYRDVMLENYSNLVSMGHSISKPNVISYLEQGKEPWLVDRELTRGQWPVLESR | 2.7443 | –
DOMAIN_13851 (protein, listed as Canis lupus) SHGPLSFEDVAVAFTKEEWQQLDPAQRTLYRDVMLENFSHLVSLGHPVSKPDVISKLEQGEEPWIIKRDIPNWIYPERENR | 2.6472 | –
DOMAIN_13733 (protein, listed as Sapajus apella) SQELLTFKDISIDFTQEEWGQLTPAHQNLYREVMLENYSNLVSVAGYQLSKPVVISQLEKGEEPWMTEKEGPGDPSSDLKS | 3.3285 | –
DOMAIN_13984 (protein, listed as Phascolarctos cinereus) SQIPLTFQDVAVDFTWEEWGLLEPSQKDMYWDVMLENYENFVSLGGLPICLPDVISRMERIEAPWMAEGGVLVSTFLGSLS | 2.8513 | –
DOMAIN_13644 (protein, listed as Phascolarctos cinereus) QASVTFRDVAVDFTGEEWRCLEPAQRALYRDVMLETYENLVFLGLSVPISKLDLIFLLERGGALSRPMGRVPSDSCPDSFI | – | Log2 (fold change) [2]: 3.2677
DOMAIN_13859 (protein, listed as Macaca fascicularis) ALRSVMFSDVSIDFSPEEWEYLDLEQKDLYRDVMLENYSNLVSLGCFISKPDVISLLEQGKEPWKVVRKGRRQYPDLETKY | 2.2006 | –
DOMAIN_13574 (protein, Puma concolor) SWASVVFEDVAVNFTPEEWALLNRGQRKLYRDVMLETCRNLSAVEKRKFHSSGDLTRMQEGLLRSPLVESVCERIEGDPCG | – | Log2 (fold change) [2]: 3.1114
DOMAIN_19821 (protein, listed as Rhinopithecus roxellana) VQEPVTFKDVAVDFTQEEWGQLDLVQRTLYRDVMLETYGHLLSVGNQIAKPEVISLLEQGEEPWSMEQACPQRTCPEWMRN | – | Log2 (fold change) [3]: 3.583
DOMAIN_13979 (protein, listed as Macaca fascicularis) FQGSVTFEDVAIAFSQQEWESLDSSQRGLYRDVMLENYRNLVSMGHSLSKPHVIALLERWKEPKVTDRKDGRRWCTDLQLE | 2.6188 | –
DOMAIN_13907 (protein, listed as Phascolarctos cinereus) MQESVTFKDVAVDFTQEEWKQLDPAQRDLYRDVMLENYRNLVSLGLPVFKPDVISQLEKGEAPWTPEVPRSTCSGSFSQEA | 2.4263 | –
